Measured values from article PMC11268115.
Results are given in words; binding and its absence hold for the method and conditions named. In cells and extracts the contact can be indirect. Some results given as binding are weak or reduced against the parent protein; the word gives no strength. For part of these data: Sequences can lack the tags named with a protein.

The chains behind the UniProt entries cited, without tags or fusion partners.
UniProt O15392: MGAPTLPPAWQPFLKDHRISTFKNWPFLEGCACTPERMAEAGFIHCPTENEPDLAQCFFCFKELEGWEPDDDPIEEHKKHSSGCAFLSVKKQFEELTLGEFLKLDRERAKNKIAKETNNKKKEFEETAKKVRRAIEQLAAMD
UniProt Q13490: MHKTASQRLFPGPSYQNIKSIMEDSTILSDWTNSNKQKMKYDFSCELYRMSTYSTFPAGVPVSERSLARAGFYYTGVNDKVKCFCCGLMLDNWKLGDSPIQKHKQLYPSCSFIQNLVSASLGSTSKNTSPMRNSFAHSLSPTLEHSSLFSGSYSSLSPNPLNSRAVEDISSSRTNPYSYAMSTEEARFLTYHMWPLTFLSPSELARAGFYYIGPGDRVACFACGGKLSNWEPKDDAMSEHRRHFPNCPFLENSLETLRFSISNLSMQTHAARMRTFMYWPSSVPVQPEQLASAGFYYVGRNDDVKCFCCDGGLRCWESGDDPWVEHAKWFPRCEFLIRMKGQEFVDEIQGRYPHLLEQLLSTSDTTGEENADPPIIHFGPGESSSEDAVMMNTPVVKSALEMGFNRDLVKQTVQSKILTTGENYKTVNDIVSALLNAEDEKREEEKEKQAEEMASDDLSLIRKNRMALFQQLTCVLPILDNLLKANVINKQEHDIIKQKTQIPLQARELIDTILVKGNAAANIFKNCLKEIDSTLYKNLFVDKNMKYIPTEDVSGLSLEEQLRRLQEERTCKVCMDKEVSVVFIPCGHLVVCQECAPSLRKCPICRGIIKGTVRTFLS
UniProt P98170: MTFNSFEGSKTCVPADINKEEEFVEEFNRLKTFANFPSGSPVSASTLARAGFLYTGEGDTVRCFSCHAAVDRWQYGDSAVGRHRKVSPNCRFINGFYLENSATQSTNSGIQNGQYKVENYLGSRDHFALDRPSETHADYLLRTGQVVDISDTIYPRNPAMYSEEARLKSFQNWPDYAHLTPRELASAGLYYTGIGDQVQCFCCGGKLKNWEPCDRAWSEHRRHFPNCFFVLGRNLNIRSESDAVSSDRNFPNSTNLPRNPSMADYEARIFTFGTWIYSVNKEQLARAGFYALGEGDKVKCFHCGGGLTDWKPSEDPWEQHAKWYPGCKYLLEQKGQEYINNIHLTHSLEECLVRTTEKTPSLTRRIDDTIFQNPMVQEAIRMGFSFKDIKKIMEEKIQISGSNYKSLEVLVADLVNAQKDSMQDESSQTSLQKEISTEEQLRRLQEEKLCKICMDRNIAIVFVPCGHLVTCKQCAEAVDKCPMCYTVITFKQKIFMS
UniProt Q07817: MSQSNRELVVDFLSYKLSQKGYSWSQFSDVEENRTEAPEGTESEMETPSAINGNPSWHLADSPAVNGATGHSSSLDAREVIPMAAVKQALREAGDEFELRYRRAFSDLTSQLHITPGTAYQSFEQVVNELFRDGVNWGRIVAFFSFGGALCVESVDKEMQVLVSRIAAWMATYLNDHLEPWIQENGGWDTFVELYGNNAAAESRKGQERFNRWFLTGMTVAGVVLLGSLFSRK
UniProt Q07820: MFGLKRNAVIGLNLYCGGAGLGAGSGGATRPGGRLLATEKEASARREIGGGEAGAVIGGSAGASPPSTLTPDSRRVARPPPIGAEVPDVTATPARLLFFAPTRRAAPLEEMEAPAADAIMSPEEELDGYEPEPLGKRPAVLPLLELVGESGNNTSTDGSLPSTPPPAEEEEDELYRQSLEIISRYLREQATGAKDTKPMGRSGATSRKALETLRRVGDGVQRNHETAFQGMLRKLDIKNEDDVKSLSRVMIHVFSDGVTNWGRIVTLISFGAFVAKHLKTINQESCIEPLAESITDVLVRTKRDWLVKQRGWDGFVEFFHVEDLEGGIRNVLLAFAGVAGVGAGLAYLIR
UniProt Q04206: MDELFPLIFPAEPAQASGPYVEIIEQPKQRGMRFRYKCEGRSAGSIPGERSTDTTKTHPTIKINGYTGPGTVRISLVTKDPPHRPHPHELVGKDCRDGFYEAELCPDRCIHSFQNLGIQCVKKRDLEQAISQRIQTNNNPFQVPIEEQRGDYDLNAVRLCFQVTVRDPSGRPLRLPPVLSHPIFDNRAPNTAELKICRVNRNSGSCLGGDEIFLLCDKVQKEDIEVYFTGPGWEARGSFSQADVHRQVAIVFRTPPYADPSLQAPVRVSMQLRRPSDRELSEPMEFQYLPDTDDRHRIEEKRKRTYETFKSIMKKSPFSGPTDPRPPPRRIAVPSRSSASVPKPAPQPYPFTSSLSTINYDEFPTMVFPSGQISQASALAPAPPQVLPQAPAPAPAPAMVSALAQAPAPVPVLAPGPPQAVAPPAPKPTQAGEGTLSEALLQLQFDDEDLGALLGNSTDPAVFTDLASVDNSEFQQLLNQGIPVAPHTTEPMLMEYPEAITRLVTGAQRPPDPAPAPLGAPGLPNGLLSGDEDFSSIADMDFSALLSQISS

Assays:
HA-survivin = HA-survivin (UniProt O15392); assay: co-IP; HEK-293 cells cotransfected with tagged plasmids, lysed after 24 h in cell lysis buffer with protease inhibitors; immunoprecipitation with Myc-Tag, HA-Tag or anti-Flag (M2) magnetic beads, Western blot of the tags
Myc-cIAP1 = Myc-cIAP1 (UniProt Q13490); assay: as above
Myc-XIAP = Myc-XIAP (UniProt P98170); assay: as above
[1] = biological target: endogenous cIAP1 (human (endogenous in HCT-8 and HEK-293)) (UniProt Q13490); assay: co-IP; HCT-8 cell lysates, endogenous proteins; immunoprecipitation with anti-cIAP1 or anti-survivin antibody, control rabbit IgG isotype; Western blot
[2] = biological target: endogenous survivin (human (endogenous in HCT-8 and HEK-293)) (UniProt O15392); assay: as above
[3] = biological target: endogenous cIAP1 (human (endogenous in HCT-8 and HEK-293)) (UniProt Q13490); assay: co-IP; HEK-293 cells transfected with empty vector or Myc-USP36; immunoprecipitation of endogenous proteins with anti-cIAP1 or anti-survivin antibody; Western blot
[4] = biological target: endogenous survivin (human (endogenous in HCT-8 and HEK-293)) (UniProt O15392); assay: as above
Flag-Bcl-xL = Flag-Bcl-xL (UniProt Q07817); assay: co-IP; HEK-293 cells cotransfected with tagged plasmids, lysed after 24 h in cell lysis buffer with protease inhibitors; immunoprecipitation with Myc-Tag, HA-Tag or anti-Flag (M2) magnetic beads, Western blot of the tags
Flag-Mcl-1 = Flag-Mcl-1 (UniProt Q07820); assay: as above
Flag-p65 = Flag-p65 (UniProt Q04206); assay: as above

B1: Myc-USP36 (1–420 aa), N-terminal USP domain (domain or fragment, UniProt Q9P275 1-420)
chain: MPIVDKLKEALKPGRKDSADDGELGKLLASSAKKVLLQKIEFEPASKSFSYQLEALKSKYVLLNPKTEGASRHKSGDDPPARRQGSEHTYESCGDGVPAPQKVLFPTERLSLRWERVFRVGAGLHNLGNTCFLNATIQCLTYTPPLANYLLSKEHARSCHQGSFCMLCVMQNHIVQAFANSGNAIKPVSFIRDLKKIARHFRFGNQEDAHEFLRYTIDAMQKACLNGCAKLDRQTQATTLVHQIFGGYLRSRVKCSVCKSVSDTYDPYLDVALEIRQAANIVRALELFVKADVLSGENAYMCAKCKKKVPASKRFTIHRTSNVLTLSLKRFANFSGGKITKDVGYPEFLNIRPYMSQNNGDPVMYGLYAVLVHSGYSCHAGHYYCYVKASNGQWYQMNDSLVHSSNVKVVLNQQAYVLFY
- binding (HA-survivin): binds

B2: HA-USP36 (801–1121 aa), C-terminal domain (domain or fragment, UniProt Q9P275 801-1121)
chain: ASEPPQSPSEKRKKTFVGEPQRLGSETRLPQHIREATAAPHGKRKRKKKKRPEDTAASALQEGQTQRQPGSPMYRREGQAQLPAVRRQEDGTQPQVNGQQVGCVTDGHHASSRKRRRKGAEGLGEEGGLHQDPLRHSCSPMGDGDPEAMEESPRKKKKKKRKQETQRAVEEDGHLKCPRSAKPQDAVVPESSSCAPSANGWCPGDRMGLSQAPPVSWNGERESDVVQELLKYSSDKAYGRKVLTWDGKMSAVSQDAIEDSRQARTETVVDDWDEEFDRGKEKKIKKFKREKRRNFNAFQKLQTRRNFWSVTHPAKAASLSY
- binding (Myc-cIAP1): binds

B3: HA-USP36 (Flag-HA-USP36), full length, WT (enzyme, UniProt Q9P275 1-1123)
chain: MPIVDKLKEALKPGRKDSADDGELGKLLASSAKKVLLQKIEFEPASKSFSYQLEALKSKYVLLNPKTEGASRHKSGDDPPARRQGSEHTYESCGDGVPAPQKVLFPTERLSLRWERVFRVGAGLHNLGNTCFLNATIQCLTYTPPLANYLLSKEHARSCHQGSFCMLCVMQNHIVQAFANSGNAIKPVSFIRDLKKIARHFRFGNQEDAHEFLRYTIDAMQKACLNGCAKLDRQTQATTLVHQIFGGYLRSRVKCSVCKSVSDTYDPYLDVALEIRQAANIVRALELFVKADVLSGENAYMCAKCKKKVPASKRFTIHRTSNVLTLSLKRFANFSGGKITKDVGYPEFLNIRPYMSQNNGDPVMYGLYAVLVHSGYSCHAGHYYCYVKASNGQWYQMNDSLVHSSNVKVVLNQQAYVLFYLRIPGSKKSPEGLISRTGSSSLPGRPSVIPDHSKKNIGNGIISSPLTGKRQDSGTMKKPHTTEEIGVPISRNGSTLGLKSQNGCIPPKLPSGSPSPKLSQTPTHMPTILDDPGKKVKKPAPPQHFSPRTAQGLPGTSNSNSSRSGSQRQGSWDSRDVVLSTSPKLLATATANGHGLKGNDESAGLDRRGSSSSSPEHSASSDSTKAPQTPRSGAAHLCDSQETNCSTAGHSKTPPSGADSKTVKLKSPVLSNTTTEPASTMSPPPAKKLALSAKKASTLWRATGNDLRPPPPSPSSDLTHPMKTSHPVVASTWPVHRARAVSPAPQSSSRLQPPFSPHPTLLSSTPKPPGTSEPRSCSSISTALPQVNEDLVSLPHQLPEASEPPQSPSEKRKKTFVGEPQRLGSETRLPQHIREATAAPHGKRKRKKKKRPEDTAASALQEGQTQRQPGSPMYRREGQAQLPAVRRQEDGTQPQVNGQQVGCVTDGHHASSRKRRRKGAEGLGEEGGLHQDPLRHSCSPMGDGDPEAMEESPRKKKKKKRKQETQRAVEEDGHLKCPRSAKPQDAVVPESSSCAPSANGWCPGDRMGLSQAPPVSWNGERESDVVQELLKYSSDKAYGRKVLTWDGKMSAVSQDAIEDSRQARTETVVDDWDEEFDRGKEKKIKKFKREKRRNFNAFQKLQTRRNFWSVTHPAKAASLSYRR
- binding (Myc-XIAP): no binding
- binding (Myc-cIAP1): binds

B4: endogenous USP36 (enzyme, UniProt Q9P275 1-1123)
chain: B3 chain
- binding [1]: binds
- binding [2]: binds

B5: Myc-USP36 (ubiquitin-specific protease 36), full length, WT (enzyme, UniProt Q9P275 1-1123)
chain: B3 chain
- binding [3]: binds
- binding [4]: binds
- binding (Flag-Bcl-xL): no binding
- binding (Flag-Mcl-1): no binding
- binding (Flag-p65): no binding
- binding (HA-survivin): binds
